Source: the supplement of paper PMC3334620
In all, about 33,000 sequences were measured (“E-score (-0.5 to 0.5)”: median about -0.016, highest 2% from about 0.32 on). The list shows a part of the results.

biological target: T1, Stp1 (UniProt B3LFK1); experiment: PBM E-score (8-mer binding enrichment) (E-score (-0.5 to 0.5)); higher = stronger / more preferred TF binding; most listed sequences are background and not binding sites; settings: protein concentration: 200 nM; construct: GST-full length
T1 sequence: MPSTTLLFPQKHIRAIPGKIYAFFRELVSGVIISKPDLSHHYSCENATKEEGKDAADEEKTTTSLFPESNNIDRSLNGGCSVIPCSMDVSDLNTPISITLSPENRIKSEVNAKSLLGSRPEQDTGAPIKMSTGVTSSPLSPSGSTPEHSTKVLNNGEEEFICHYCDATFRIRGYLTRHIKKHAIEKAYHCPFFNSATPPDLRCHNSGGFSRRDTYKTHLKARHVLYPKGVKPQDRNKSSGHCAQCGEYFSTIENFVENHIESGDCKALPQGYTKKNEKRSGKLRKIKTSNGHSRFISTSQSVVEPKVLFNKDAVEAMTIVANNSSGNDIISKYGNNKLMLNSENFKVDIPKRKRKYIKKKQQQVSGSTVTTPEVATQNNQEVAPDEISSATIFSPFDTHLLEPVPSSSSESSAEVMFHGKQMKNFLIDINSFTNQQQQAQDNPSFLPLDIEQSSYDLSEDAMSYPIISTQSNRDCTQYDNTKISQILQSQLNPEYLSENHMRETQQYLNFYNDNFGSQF
How it was run: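 Each ungapped eight-base word and its reverse complement, pooled, received an E-score from the Universal PBM Analysis Suite. Underlying scans, normalised with masliner, recorded fluorescent anti-GST bound to GST-tagged yeast transcription factors. These were applied at about 100-200 nM to universal all-10-mer Agilent arrays double-stranded by primer extension.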

Sequence	PBM E-score
ACCCAGCG	-0.148
ACCACTAT	-0.127
AAAGAGGT	-0.0198
CCATTTAC	0.0994
ATTTAGCC	0.188
CACCGTCG	-0.114
TGCATGAA	0.0576
CCACTAAC	-0.0809
ATTTACGG	0.277
GATACAAC	0.0945
CTTGCATA	-0.0277
AGCAGATA	-0.0603
ATTTTGAA	0.277
GACTCAAC	0.15
CGTGGGAA	0.0706
GTATTAAC	0.0684
ACTTTACG	0.0861
AAAGTTCA	0.0106
TGCCAAAA	0.0739
GATAGAGC	0.161
AAAGTCCC	-0.212
CAAAGCAC	-0.0968
CTGTCTTC	-0.0807
ACTTCGGG	-0.114
GGGGATCA	-0.201

Sequence	PBM E-score
CGGCACGC	0.437
ATATGGAT	0.0941
ACCTTGCT	-0.158
ATCCACTG	-0.203
ACAGCTAG	-0.0366
TAGCGGAA	-0.0289
GCCGAACA	0.114
CCAACTAG	-0.0642
TTCAACAA	0.167
TGCTGTAA	-0.00878
AACCTGAA	-0.217
CATGGCAA	0.146
ACACAGGG	0.0528
CCAATTGC	0.014
GGGCTTGA	-0.172
AAGTAGAC	-0.0374
CCCGAATA	0.0793
AAATTATT	0.156
AATATGAG	0.0299
ATCTTCAA	0.114
AAGGAATG	0.0751
CGTACAGA	0.132
GACGAATA	0.0941
GGGCCTGA	-0.296
CACTCGCC	0.203

Sequence	PBM E-score
AGCCTACA	-0.0558
ACCGTGAA	-0.0275
AGGGCATG	0.0868
ACCTCAGC	-0.101
ATTAGCTC	-0.13
CCGCACCG	0.288
ATAACCTA	-0.0129
CTTGCCGA	-0.128
GGGGCGCA	0.126
ACACGCTC	0.0368
CAGACTCG	-0.185
ATCTAGCC	0.126
ACATTGAA	0.141
ATGTCATC	-0.214
CACGAAGA	0.158
CAACAGCC	0.188
CCGGTACA	-0.2
ACTGATGG	-0.11
AGTGCCAG	-0.105
ACGTAGTA	0.103
ACGGGCGA	-0.0527
ACAGGTGC	-0.0189
CGGGGACC	-0.15
AAGCATTC	-0.00856
ATTCCGAG	-0.0185

Sequence	PBM E-score
AGACTACA	-0.154
AATCGTCT	0.129
CAGGTTCG	-0.105
ACGCTTAG	-0.149
AGGCGTCA	0.172
AGTGTATG	0.161
CTAAGGAC	-0.103
TTAAGTAA	-0.0214
GACAAAAC	-0.00337
ATTTATGC	0.0882
ACTTGTCC	-0.0113
ATTAGCGA	0.0934
ATTACATC	0.123
CTAAGGTA	0.164
CTTACGCA	0.00976
AATACGTC	0.0822
CACTGGCA	-0.0309
CGGAGGCC	-0.0252
CTATTGAA	0.199
CCAGCTCG	-0.156
TCATACAA	0.122
ATATTCTG	-0.053
ATTGTCAG	-0.0247
AGCGACCC	-0.0739
AGGGGATC	-0.23

Sequence	PBM E-score
GTCTGCAA	-0.0438
ACAAGCCT	0.0381
AGGTATAT	-0.0343
TAGTGACA	0.0544
GGTAGCTA	-0.301
AGATAAGG	0.0189
AGCCGCAG	0.258
CGTAATCC	0.00113
GAGAGACA	-0.32
ACTGTACC	-0.239
GCAGTTCC	-0.0465
AGTACATA	0.102
ATTCTCAA	0.152
CAGCTTGA	-0.0612
AGTCTAAG	-0.00282
ATATATGG	0.174
ACCATATC	-0.01
AGGTTAAA	-0.122
ACACAGAC	0.0537
CGAGGGCG	-0.052
AATTAGAG	-0.0445
AAAAAGCT	-0.079
CTCACTAC	-0.0257
CCCTGTAA	-0.0443
CTAGTTGA	0.0366

Sequence	PBM E-score
CCTCGTCA	0.239
ACTCAGTG	-0.139
AGGGTAAT	0.0034
ACGATTCA	0.0286
AAATGCTA	0.098
AGAATATA	-0.0127
AACGGGCA	0.171
AATGCATC	-0.114
GGCCGACC	-0.225
TATGCAAA	-0.00692
TCCTCAAA	-0.0557
CGCTCCCC	-0.167
CCGTTTCA	0.281
ACAGGTTG	-0.251
GCAACCGC	0.1
ATGGAAAG	0.103
ACGCAAGA	-0.0151
AAGTCATA	0.074
GATACTAA	0.165
GATTGGAA	0.129
AACCGGCG	0.211
GTCTCACA	0.0616
AGAGGGGA	-0.282
TACATAGA	0.0247
AGCCTCCG	-0.136

Sequence	PBM E-score
CTCTACGA	-0.0271
CCACGCTA	-0.211
CAGTGTCA	0.0177
ACGGATAA	0.193
CCACTTCC	-0.0391
ATCAAGAC	-0.0747
AGTTTGAC	0.0772
CGCAGAAC	0.217
CTGCTGCA	-0.169
CATTTCGG	-0.097
GACCCATC	-0.264
GAAACACA	0.226
CGCGGAAA	0.0786
CAGCGACA	-0.172
CCATCCTC	-0.143
TCCTCGCA	-0.00324
CAAAGATG	-0.0241
AACTTTGA	0.232
AGGAAAGA	-0.108
ACCCGTCG	-0.0617
AGCACTCG	-0.175
CGCATCTC	0.101
